# About 150 (0.041%) of roughly 370,000 compounds were called active. Inconclusive means that the source gave no clear call. Such entries were picked first, then a sample of the others. Calls come from the whole dose curve; as a rule, active = well fitted inhibition curve with a large enough effect; inconclusive = small, poorly fitted or top-dose-only effect; inactive = flat fitted curve, though single readings scatter. No potency is given beside an inconclusive call; the fits are too rough.
# Biological target: Beta-lactamase (Escherichia coli (strain K12)) (UniProt P00811)
# Chain of UniProt P00811 (P00811 whole entry, looked up): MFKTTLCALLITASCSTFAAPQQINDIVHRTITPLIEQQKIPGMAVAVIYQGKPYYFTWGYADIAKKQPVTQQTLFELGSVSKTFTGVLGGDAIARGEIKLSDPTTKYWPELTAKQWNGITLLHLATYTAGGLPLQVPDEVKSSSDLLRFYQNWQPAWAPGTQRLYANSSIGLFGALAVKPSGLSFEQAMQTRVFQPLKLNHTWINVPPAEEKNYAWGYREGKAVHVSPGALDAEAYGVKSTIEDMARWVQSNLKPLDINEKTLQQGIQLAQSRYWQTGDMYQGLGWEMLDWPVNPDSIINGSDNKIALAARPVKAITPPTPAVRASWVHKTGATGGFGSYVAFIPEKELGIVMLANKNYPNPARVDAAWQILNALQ
# Test: qHTS Inhibitors of AmpC Beta-Lactamase (assay with detergent); note: nearly all actives have a fitted effect of over 25% in size;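 for activity change, negative = inhibition: 0% = no-compound wells and -100% = no-enzyme wells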
# Details: AmpC hydrolysis of nitrocefin, absorbance 480 nm, 0.01% Triton; activity change, negative = inhibition: at 114 µM (top of the series)
# Method in brief: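 AmpC (5.3 nM in the dispensed reagent) in 20 mM phosphate pH 7.0 with 0.01% (detergent screen) or 0.0001% Triton X-100 was preincubated with compounds for 15 min at room temperature. Nitrocefin was then added from an 800 uM solution, and hydrolysis was followed at 480 nm.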
# Potency is the fitted concentration of half-maximal effect; tags give direction and shape of the fitted curve.
Compound,"activity change, negative = inhibition",Potency
CN(C)S(=O)(=O)c1cccc(NC(=O)Cn2cc(C(F)(F)F)cc(Cl)c2=O)c1,inactive: -6.82%,
COc1ccc(OC)c(CN2CCN(C(=O)[C@@H](NC(=O)c3cccc(C)c3)C(C)C)CC2)c1,,"inconclusive [inhibitor, full curve, poor fit]"
CN(C)C(=O)CSc1nc2ccc(C(=O)c3ccccc3)cc2[nH]1,,"inconclusive [inhibitor, full curve, poor fit]"
O=C(NCC1CCCO1)C1CCN(c2ccc(S(=O)(=O)N3CCCC3)cc2)CC1 (stereo unspecified),,"inconclusive [inhibitor, full curve]"
CCC(C)NC(=O)CSC1=Nc2ccccc2C2=NC(c3ccccc3)C(=O)N12 (stereo unspecified),inactive: -0.359%,
Nc1ccc(OCc2ccccc2)cc1,inactive: -10.7%,
CSc1ccccc1C(=O)N1CCCC(CCC(=O)NCc2ccc(F)c(F)c2)C1 (stereo unspecified),,"inconclusive [inhibitor, full curve]"
Cc1cc2c(cc1NC(=O)c1ccccc1C)n(C)c(=O)c(=O)n2C,inactive: -2.98%,
CC(C)OP(=O)(Nc1cccc2ccccc12)OC(C)C,,"inconclusive [inhibitor, partial curve, poor fit]"
CCN(C(=O)COC(=O)/C=C/c1nc2ccccc2s1)C1CCS(=O)(=O)C1 (stereo unspecified),,"inconclusive [inhibitor, partial curve]"
COc1ccc(-c2nc(CS(=O)CC(=O)NCc3ccc(F)cc3)c(C)o2)cc1 (stereo unspecified),,"inconclusive [inhibitor, partial curve]"
CCOc1ccccc1C(=O)Nc1ccc(NC(=O)c2ccccc2)cc1,inactive: 3.79%,
COCc1cc(C)nc(SCC(=O)Nc2cccc3cccnc23)c1C#N,,"inconclusive [inhibitor, full curve, poor fit]"
CCC(CC)C(=O)c1c[nH]c(C(=O)N2CCN(c3ccc(OC)cc3)CC2)c1,,"inconclusive [inhibitor, full curve]"
CN(C)C(/C=C/Nc1ccc(O)cc1)=C(C#N)C#N,,"inconclusive [inhibitor, full curve, poor fit]"
COc1ccc(Cl)cc1NC(=O)CN(C)CC(=O)Nc1ccc(Br)cc1,,"inconclusive [inhibitor, single point]"
Cc1cccc(S(=O)(=O)CC(=O)Nc2nc(-c3ccccc3)cs2)c1,,"inconclusive [inhibitor, full curve, poor fit]"
CCN1C(=O)/C(=C/c2nc3ccccc3c(=O)[nH]2)c2ccccc21,,"inconclusive [inhibitor, partial curve, poor fit]"
CC1CCN(S(=O)(=O)c2ccc3c(c2)oc(=O)n3CC(=O)N2CCc3ccccc3C2)CC1,inactive: -13%,
COc1cccc(-c2nc(N3CCC(C)CC3)c3ccccc3n2)c1O,inactive: 5.78%,
CC(C)C(NS(=O)(=O)c1ccc2c(c1)oc(=O)n2C)C(=O)NCCc1ccccc1 (stereo unspecified),inactive: -13.9%,
O=C(O)CC1c2ccccc2C=Cc2ccccc21,,"inconclusive [inhibitor, partial curve, poor fit]"
Cc1ccc(Cc2cnc(NC(=O)c3cccs3)s2)cc1,inactive: 1.31%,
CCOC(=O)N1CCN(Cc2nc3cc([N+](=O)[O-])ccc3n2C)CC1,,"inconclusive [inhibitor, partial curve, poor fit]"

Compound,"activity change, negative = inhibition",Potency
Cc1ccc(C(c2cccc(Br)c2)c2c(C)[nH]c3ccccc23)s1 (stereo unspecified),inactive: 14%,
COc1cc2c(cc1O)C(Cc1ccc(O)cc1)NCC2 (stereo unspecified),inactive: -0.0554%,
Cc1ccc(NC(=O)CN2CCCC2)cc1,,"inconclusive [inhibitor, full curve, poor fit]"
COC(=O)[C@@]1(Cc2ccc(F)cc2)[C@H]2c3cc(C(=O)N4CCCC4)n(Cc4ccc(C(F)(F)F)nc4)c3C[C@H]2CN1C(=O)c1ccccc1,,"inconclusive [inhibitor, partial curve]"
COc1cccc(C(=O)NC(C)CCc2ccccc2)c1 (stereo unspecified),,"inconclusive [inhibitor, full curve, poor fit]"
COc1cccc(/C=N/Nc2nc(N3CCCC3)nc(N3CCCC3)n2)c1O,,"inconclusive [inhibitor, partial curve, poor fit]"
COc1ccc(CNC(=O)c2ccc(N3CCCC3=O)cc2)cc1,inactive: -13%,
COc1ccc(OCC(=O)NCC(c2ccc(OC)cc2)N2CCCCC2)cc1 (stereo unspecified),,"inconclusive [inhibitor, full curve, poor fit]"
O=c1[nH]c(=O)n(C2CCCCC2)c(O)c1C1=Nc2ccccc2SC(c2ccccc2)C1 (stereo unspecified),,"inconclusive [inhibitor, partial curve]"
COc1cc(NC(=O)c2ccccn2)cc(OC)c1OC,inactive: -0.515%,
COc1ccc(C(NCC(=O)Nc2c(C)cccc2C)c2ccccc2)cc1 (stereo unspecified),,"inconclusive [inhibitor, full curve, poor fit]"
COc1ccc(NC(=O)CSc2nc(SC)ns2)cc1,inactive: 1.32%,
COc1ccc(SCC(=O)Nc2ccccc2Cl)cc1,,"inconclusive [inhibitor, single point]"
Cc1cccc2sc(N(CCCN(C)C)C(=O)c3ccc4ncsc4c3)nc12,inactive: 3.21%,
CCOC(=O)c1sc(NC(=O)c2ccc(S(=O)(=O)N(C)C)cc2)nc1C,inactive: -12.6%,
CC(C)(C)c1ccc(S(=O)(=O)N2CC(C(=O)O)Oc3ccc(Cl)cc32)cc1 (stereo unspecified),,"inconclusive [inhibitor, partial curve, poor fit]"
Cc1ccc(C(C)NC(=S)NC2CCCCC2)cc1C (stereo unspecified),inactive: -6.16%,
CCOc1cc(C(=O)Nc2ccc(NC(C)=O)cc2)ccc1OCC(=O)N1CCCCC1,,"inconclusive [inhibitor, partial curve]"
CC(C)(C)c1ccc(OCC(=O)Nc2cccc(S(=O)(=O)NC3=NCCCCC3)c2)cc1,,"inconclusive [inhibitor, full curve, poor fit]"
COc1cc(/C=N/Nc2snc(SC)c2C#N)ccc1O,inactive: -0.249%,
CC12CN3CC(C)(CN(C1)C3c1ccc(Br)cc1)C2=O (stereo unspecified),,"inconclusive [inhibitor, full curve, poor fit]"
CN(CCCn1c(=S)[nH]c2ncccc2c1=O)Cc1ccccc1,,"inconclusive [inhibitor, full curve, poor fit]"
O=C(NC1CC(=O)N(c2ccccc2)C1)c1ccc(S(=O)(=O)N2CCCCC2)cc1 (stereo unspecified),inactive: -1.4%,
CNC(=O)/C(=C\c1cccc(Oc2ccccc2)c1)NC(=O)c1ccccc1,inactive: -8.78%,

Compound,"activity change, negative = inhibition",Potency
Cn1c(N2CCN(C(=O)Nc3ccc(C(F)(F)F)cc3)CC2)nc2ccccc21,,"inconclusive [inhibitor, partial curve, poor fit]"
CC(C)CNC(=O)c1ccc(Cl)c(Cl)c1,inactive: -2.63%,
COc1cc(/C=C2\SC(=S)N(CCC(=O)Nc3cccc(O)c3)C2=O)cc(OC)c1OC,inactive: -21.5%,
COc1cc(OC)c(NC(=O)CCCn2nc(C)c3c(C)n(-c4ccccc4)nc3c2=O)cc1Cl,inactive: 3.95%,
COc1ccc(/C=C2\SC(=S)N(CCC(=O)N(CCO)Cc3ccccc3)C2=O)cc1OC,,"inconclusive [inhibitor, full curve, poor fit]"
CCN(CC)CCCn1c(C)cc2c(c1=O)C(c1ccccc1)C(C#N)=C(N)O2 (stereo unspecified),inactive: 2.72%,
Cc1csc(NC(=O)C2CSC3(C)CCC(=O)N23)n1 (stereo unspecified),inactive: -3.8%,
COc1cc(/C=C2/CCC/C(=C\c3cc(O)c(OC)c(Cl)c3)C2=O)cc(Cl)c1O,inactive: -8.82%,
CNC(=O)Oc1ccc2c(c1)C(=O)c1ccccc1CO2,,"inconclusive [inhibitor, single point]"
O=C(c1ccccc1-c1nc2ccccc2[nH]1)N1CCOCC1,,"inconclusive [inhibitor, single point]"
C/C=C/c1ccc(OC)c(OC(C)=O)c1,,"inconclusive [inhibitor, full curve, poor fit]"
CCn1c(NC(=O)/C=C/c2ccc(F)cc2)nc2ccccc21,,"inconclusive [inhibitor, full curve]"
COc1cccc(C(=O)NCCS(=O)(=O)NC2CCCC2)c1,,"inconclusive [inhibitor, full curve, poor fit]"
O=C(NNC(=O)C1CCC1)c1ccc(Br)cc1,,"inconclusive [inhibitor, full curve]"
c1cncc(-c2nc(-c3cccs3)cs2)c1,inactive: -10.6%,
Cc1ccc(OCC(=O)Nc2ccc(N3CCN(S(C)(=O)=O)CC3)cc2)cc1C,inactive: 2.47%,
Cn1c(CN2CCN(C(=O)c3ccco3)CC2)nc2cc([N+](=O)[O-])ccc21,,"inconclusive [inhibitor, partial curve]"
NC(=S)Nc1ccc(Cl)c(Cl)c1,inactive: -6.98%,
C=CCN1C(=O)NC(=O)/C(=C/c2cc3c4c(c2)CCCN4CCC3)C1=O,inactive: -12.9%,
O=C(COc1ccc(Cl)cc1)Nc1cccc(S(=O)(=O)NC2=NCCCCC2)c1,,"inconclusive [inhibitor, full curve]"
COC(=O)N/N=C/c1c(C)cc(C)cc1C,,"inconclusive [inhibitor, full curve, poor fit]"
CCOc1ccc(OCC(=O)OCC(=O)N2CCN(C(=O)c3ccco3)CC2)cc1,,"inconclusive [inhibitor, full curve, poor fit]"
Cc1occc1-c1nnc(SCC(=O)c2c(N)n(C3CC3)c(=O)[nH]c2=O)n1C,,"inconclusive [inhibitor, full curve, poor fit]"
